{
  "source": "the supplement of paper PMC8728848",
  "binders": {"B1": {"name": "Cohesin-hDECTIN-1 (Homo sapiens) (protein)", "chain": "LDITSHHHHHHDDLDAVRIKVDTVNAKPGDTVRIPVRFSGIPSKGIANCDFVYSYDPNVLEIIEIEPGDIIVDPNPDKSFDTAVYPDRKIIVFLFAEDSGTGAYAITKDGVFATIVAKVKEGAPNGLSVIKFVEVGGFANNDLVEQKTQFFDGGVNVGDTTEPATPTTPVTTPTTTDDLDAASSSPCPPNWIIYEKSCYLFSMSLNSWDGSKRQCWQLGSNLLKIDSSNELGFIVKQVSSQPDNSFWIGLSRPQTEVPWLWEDGSTFSSNLFQIRTTATQENPSPNCVWIHVSVIYDQLCSVPSYSICEKKFM"}},
  "assay_in_all_cases": "glycan array binding signal (z-score within array); higher = stronger binding",
  "conditions_in_all_cases": "glycan notation: IUPAC condensed, linker removed",
  "key": {"[1]": {"molecular_target": "Fuc(a1-2)Gal", "how_it_was_run": "(§1)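 Negative Z-scores can be read as non-binding. The Z-score is calculated within each array and then averaged across arrays of one protein sequence at different concentrations or buffers and across linkers. Arrays, 3228 in all, were curated from the Consortium for Functional Glycomics database and kept only where the protein sequence was available.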"}, "[2]": {"molecular_target": "Fuc(a1-2)Gal(b1-3)GalNAc", "how_it_was_run": "as §1"}, "[3]": {"molecular_target": "Fuc(a1-2)Gal(b1-3)GalNAc(a1-3)[Fuc(a1-2)]Gal(b1-4)Glc", "how_it_was_run": "as §1"}, "[4]": {"molecular_target": "Fuc(a1-2)Gal(b1-3)GalNAc(a1-3)[Fuc(a1-2)]Gal(b1-4)GlcNAc", "how_it_was_run": "as §1"}, "[5]": {"molecular_target": "Fuc(a1-2)Gal(b1-3)GalNAc(b1-3)Gal", "how_it_was_run": "as §1"}, "[6]": {"molecular_target": "Fuc(a1-2)Gal(b1-3)GalNAc(b1-3)Gal(a1-4)Gal(b1-4)Glc", "how_it_was_run": "as §1"}, "[7]": {"molecular_target": "Fuc(a1-2)Gal(b1-3)GalNAc(b1-4)[Neu5Ac(a2-3)]Gal(b1-4)Glc", "how_it_was_run": "as §1"}, "[8]": {"molecular_target": "Fuc(a1-2)Gal(b1-3)GlcNAc", "how_it_was_run": "as §1"}, "[9]": {"molecular_target": "Fuc(a1-2)Gal(b1-3)GlcNAc(b1-2)Man(a1-3)[Fuc(a1-2)Gal(b1-3)GlcNAc(b1-2)Man(a1-6)]Man(b1-4)GlcNAc(b1-4)GlcNAc", "how_it_was_run": "as §1"}, "[10]": {"molecular_target": "Fuc(a1-2)Gal(b1-3)GlcNAc(b1-2)Man(a1-3)[Fuc(a1-2)Gal(b1-3)GlcNAc(b1-2)Man(a1-6)]Man(b1-4)GlcNAc(b1-4)[Fuc(a1-6)]GlcNAc", "how_it_was_run": "as §1"}, "[11]": {"molecular_target": "Fuc(a1-2)Gal(b1-3)GlcNAc(b1-3)Gal(b1-4)Glc", "how_it_was_run": "as §1"}, "[12]": {"molecular_target": "Fuc(a1-2)Gal(b1-3)GlcNAc(b1-3)GalNAc", "how_it_was_run": "as §1"}, "[13]": {"molecular_target": "Fuc(a1-2)Gal(b1-3)GlcNAc(b1-3)[Fuc(a1-2)Gal(b1-3)GlcNAc(b1-6)]GalNAc", "how_it_was_run": "as §1"}, "[14]": {"molecular_target": "Fuc(a1-2)Gal(b1-3)GlcNAc(b1-3)[Gal(b1-4)GlcNAc(b1-6)]Gal(b1-4)Glc", "how_it_was_run": "as §1"}, "[15]": {"molecular_target": "Fuc(a1-2)Gal(b1-3)GlcNAc(b1-3)[Neu5Ac(a2-6)Gal(b1-4)GlcNAc(b1-6)]Gal(b1-4)Glc", "how_it_was_run": "as §1"}, "[16]": {"molecular_target": "Fuc(a1-2)Gal(b1-3)GlcNAc6S", "how_it_was_run": "as §1"}, "[17]": {"molecular_target": "Fuc(a1-2)Gal(b1-3)[Fuc(a1-4)]GlcNAc", "how_it_was_run": "as §1"}, "[18]": {"molecular_target": "Fuc(a1-2)Gal(b1-3)[Fuc(a1-4)]GlcNAc(b1-2)Man(a1-3)[Fuc(a1-2)Gal(b1-3)[Fuc(a1-4)]GlcNAc(b1-2)Man(a1-3)]Man(b1-4)GlcNAc(b1-4)GlcNAc", "how_it_was_run": "as §1"}, "[19]": {"molecular_target": "Fuc(a1-2)Gal(b1-3)[Fuc(a1-4)]GlcNAc(b1-2)Man(a1-3)[Fuc(a1-2)Gal(b1-3)[Fuc(a1-4)]GlcNAc(b1-2)Man(a1-6)]Man(b1-4)GlcNAc(b1-4)[Fuc(a1-6)]GlcNAc(b1-4)[Fuc(a1-6)]GlcNAc", "how_it_was_run": "as §1"}, "[20]": {"molecular_target": "Fuc(a1-2)Gal(b1-3)[Fuc(a1-4)]GlcNAc(b1-3)[Fuc(a1-3)[Gal(b1-4)]GlcNAc(b1-6)]Gal(b1-4)Glc", "how_it_was_run": "as §1"}, "[21]": {"molecular_target": "Fuc(a1-2)Gal(b1-3)[Fuc(a1-4)]GlcNAc(b1-3)[Gal(b1-4)GlcNAc(b1-6)]Gal(b1-4)Glc", "how_it_was_run": "as §1"}, "[22]": {"molecular_target": "Fuc(a1-2)Gal(b1-4)Glc", "how_it_was_run": "as §1"}, "[23]": {"molecular_target": "Fuc(a1-2)Gal(b1-4)Glc6S", "how_it_was_run": "as §1"}, "[24]": {"molecular_target": "Fuc(a1-2)Gal(b1-4)GlcNAc", "how_it_was_run": "as §1"}, "[25]": {"molecular_target": "Fuc(a1-2)Gal(b1-4)GlcNAc(b1-2)Man", "how_it_was_run": "as §1"}, "[26]": {"molecular_target": "Fuc(a1-2)Gal(b1-4)GlcNAc(b1-2)Man(a1-3)[Fuc(a1-2)Gal(b1-4)GlcNAc(b1-2)Man(a1-6)]Man(b1-4)GlcNAc(b1-4)GlcNAc", "how_it_was_run": "as §1"}, "[27]": {"molecular_target": "Fuc(a1-2)Gal(b1-4)GlcNAc(b1-2)Man(a1-3)[Fuc(a1-2)Gal(b1-4)GlcNAc(b1-2)Man(a1-6)]Man(b1-4)GlcNAc(b1-4)[Fuc(a1-6)]GlcNAc", "how_it_was_run": "as §1"}, "[28]": {"molecular_target": "Fuc(a1-2)Gal(b1-4)GlcNAc(b1-2)[Fuc(a1-2)Gal(b1-4)GlcNAc(b1-4)]Man(a1-3)[Fuc(a1-2)Gal(b1-4)GlcNAc(b1-2)Man(a1-6)]Man(b1-4)GlcNAc(b1-4)GlcNAc", "how_it_was_run": "as §1"}, "[29]": {"molecular_target": "Fuc(a1-2)Gal(b1-4)GlcNAc(b1-3)Gal(b1-4)GlcNAc", "how_it_was_run": "as §1"}, "[30]": {"molecular_target": "Fuc(a1-2)Gal(b1-4)GlcNAc(b1-3)Gal(b1-4)GlcNAc(b1-2)Man(a1-3)[Fuc(a1-2)Gal(b1-4)GlcNAc(b1-3)Gal(b1-4)GlcNAc(b1-2)Man(a1-6)]Man(b1-4)GlcNAc(b1-4)GlcNAc", "how_it_was_run": "as §1"}, "[31]": {"molecular_target": "Fuc(a1-2)Gal(b1-4)GlcNAc(b1-3)Gal(b1-4)GlcNAc(b1-3)Gal(b1-4)GlcNAc", "how_it_was_run": "as §1"}, "[32]": {"molecular_target": "Fuc(a1-2)Gal(b1-4)GlcNAc(b1-3)GalNAc", "how_it_was_run": "as §1"}, "[33]": {"molecular_target": "Fuc(a1-2)Gal(b1-4)GlcNAc(b1-3)[Fuc(a1-2)Gal(b1-4)GlcNAc(b1-6)]GalNAc", "how_it_was_run": "as §1"}, "[34]": {"molecular_target": "Fuc(a1-2)Gal(b1-4)GlcNAc(b1-3)[Fuc(a1-3)[Gal(b1-4)]GlcNAc(b1-6)]Gal(b1-4)Glc", "how_it_was_run": "as §1"}, "[35]": {"molecular_target": "Fuc(a1-2)Gal(b1-4)GlcNAc(b1-6)GalNAc", "how_it_was_run": "as §1"}, "[36]": {"molecular_target": "Fuc(a1-2)Gal(b1-4)GlcNAc6S", "how_it_was_run": "as §1"}, "[37]": {"molecular_target": "Fuc(a1-2)Gal(b1-4)[Fuc(a1-3)]GlcNAc", "how_it_was_run": "as §1"}},
  "note": "Some of the results follow.",
  "data": [
    {"binder": "B1", "values": [
      {"measurement": "glycan array binding signal (z-score)", "setting": "[1]", "value": -0.154},
      {"measurement": "glycan array binding signal (z-score)", "setting": "[2]", "value": -0.466},
      {"measurement": "glycan array binding signal (z-score)", "setting": "[3]", "value": -0.372},
      {"measurement": "glycan array binding signal (z-score)", "setting": "[4]", "value": -0.105},
      {"measurement": "glycan array binding signal (z-score)", "setting": "[5]", "value": 1.86},
      {"measurement": "glycan array binding signal (z-score)", "setting": "[6]", "value": -0.33},
      {"measurement": "glycan array binding signal (z-score)", "setting": "[7]", "value": -0.071},
      {"measurement": "glycan array binding signal (z-score)", "setting": "[8]", "value": -0.165},
      {"measurement": "glycan array binding signal (z-score)", "setting": "[9]", "value": -0.324},
      {"measurement": "glycan array binding signal (z-score)", "setting": "[10]", "value": -0.43},
      {"measurement": "glycan array binding signal (z-score)", "setting": "[11]", "value": -0.448},
      {"measurement": "glycan array binding signal (z-score)", "setting": "[12]", "value": -0.413},
      {"measurement": "glycan array binding signal (z-score)", "setting": "[13]", "value": -0.273},
      {"measurement": "glycan array binding signal (z-score)", "setting": "[14]", "value": -0.528},
      {"measurement": "glycan array binding signal (z-score)", "setting": "[15]", "value": -0.293},
      {"measurement": "glycan array binding signal (z-score)", "setting": "[16]", "value": -0.469},
      {"measurement": "glycan array binding signal (z-score)", "setting": "[17]", "value": -0.449},
      {"measurement": "glycan array binding signal (z-score)", "setting": "[18]", "value": 0.227},
      {"measurement": "glycan array binding signal (z-score)", "setting": "[19]", "value": -0.321},
      {"measurement": "glycan array binding signal (z-score)", "setting": "[20]", "value": -0.522},
      {"measurement": "glycan array binding signal (z-score)", "setting": "[21]", "value": -0.342},
      {"measurement": "glycan array binding signal (z-score)", "setting": "[22]", "value": -0.162},
      {"measurement": "glycan array binding signal (z-score)", "setting": "[23]", "value": -0.338},
      {"measurement": "glycan array binding signal (z-score)", "setting": "[24]", "value": -0.178},
      {"measurement": "glycan array binding signal (z-score)", "setting": "[25]", "value": 0.002},
      {"measurement": "glycan array binding signal (z-score)", "setting": "[26]", "value": 0.617},
      {"measurement": "glycan array binding signal (z-score)", "setting": "[27]", "value": -0.111},
      {"measurement": "glycan array binding signal (z-score)", "setting": "[28]", "value": -0.246},
      {"measurement": "glycan array binding signal (z-score)", "setting": "[29]", "value": -0.412},
      {"measurement": "glycan array binding signal (z-score)", "setting": "[30]", "value": -0.262},
      {"measurement": "glycan array binding signal (z-score)", "setting": "[31]", "value": -0.532},
      {"measurement": "glycan array binding signal (z-score)", "setting": "[32]", "value": -0.382},
      {"measurement": "glycan array binding signal (z-score)", "setting": "[33]", "value": -0.121},
      {"measurement": "glycan array binding signal (z-score)", "setting": "[34]", "value": -0.613},
      {"measurement": "glycan array binding signal (z-score)", "setting": "[35]", "value": 2.93},
      {"measurement": "glycan array binding signal (z-score)", "setting": "[36]", "value": -0.366},
      {"measurement": "glycan array binding signal (z-score)", "setting": "[37]", "value": -0.379}
    ]}
  ]
}
